The list shows a part of the results.

The target of this test is T1, MBP-FoxP1dN (Mus musculus, UniProt P58462 326-579).
T1 sequence: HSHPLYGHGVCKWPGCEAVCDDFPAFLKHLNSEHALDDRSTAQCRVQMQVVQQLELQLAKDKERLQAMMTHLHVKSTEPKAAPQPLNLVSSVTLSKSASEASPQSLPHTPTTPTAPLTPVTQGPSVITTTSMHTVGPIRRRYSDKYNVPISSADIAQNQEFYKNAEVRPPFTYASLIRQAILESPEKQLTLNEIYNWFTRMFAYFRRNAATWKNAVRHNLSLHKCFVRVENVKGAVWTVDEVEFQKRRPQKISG
Briefly: PD-seq (MBP pull-down with sequencing); 20 mM Tris-HCl pH 7.5, 100 mM NaCl, 1.5 mM MgCl2, 0.4 uM protein, 0.1 uM dsDNA library, 30 min, room temperature, amylose pull-down; high values mean tight binding. Particulars: protein: recombinant; tags: His6-MBP; chain copies: 2; dsDNA, one strand shown. The essentials:
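Amylose resin was used to capture complexes formed during 30 min at room temperature in Tris pH 7.5 buffer with NaCl and MgCl2 between 0.4 µM His6-MBP-tagged mouse FoxP3 or FoxP1 fragment lacking the N-terminus, expressed in E. coli, and 0.1 µM Klenow-filled double-stranded degenerate DNA library. After three washes, the DNA was released with proteinase K, barcoded by PCR and sequenced on Illumina. Binding is pooled-replicate reads-per-million enrichment, pull-down over input.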
In the case of “GATGATTGTTCTCCCAGCTGATGAATTGATAAGCTCGAGTAAACAAATTTTCCTAATCTTTCTGTTCAAGCGCCATCTAC”, the binding signal is 1.03 RPM ratio (pull-down/input).
The same measure for “GATGATTGTTCTCCCAGCTGATGAATTTGCCTCGTCGAGTAAACAAATTTTCCTAATCTTTCTGTTCAAGCGCCATCTAC”: 0.927 RPM ratio (pull-down/input); for “GATGATTGTTCTCCCAGCTGATGAATTCGCGGGTTCGAGTAAACAAATTTTCCTAATCTTTCTGTTCAAGCGCCATCTAC”: 0.811 RPM ratio (pull-down/input); for “GATGATTGTTCTCCCAGCTGATGAATTAGCAGCATCGAGTAAACAAATTTTCCTAATCTTTCTGTTCAAGCGCCATCTAC”: 1.01 RPM ratio (pull-down/input).
In the case of “GATGATTGTTCTCCCAGCTGATGAATTAACCTGGTCGAGTAAACAAATTTTCCTAATCTTTCTGTTCAAGCGCCATCTAC” it was 0.767 RPM ratio (pull-down/input).
The same measure for “GATGATTGTTCTCCCAGCTGATGAATTAGCCCACTCGAGTAAACAAATTTTCCTAATCTTTCTGTTCAAGCGCCATCTAC”: 0.892 RPM ratio (pull-down/input).
Regarding “GATGATTGTTCTCCCAGCTGATGAATTCTATCTCTCGAGTAAACAAATTTTCCTAATCTTTCTGTTCAAGCGCCATCTAC”, the binding signal was 0.868 RPM ratio (pull-down/input).
Regarding “GATGATTGTTCTCCCAGCTGATGAATTTCCGGTATCGAGTAAACAAATTTTCCTAATCTTTCTGTTCAAGCGCCATCTAC”, the binding signal is 0.895 RPM ratio (pull-down/input).
With “GATGATTGTTCTCCCAGCTGATGAATTGCCGGGTTCGAGTAAACAAATTTTCCTAATCTTTCTGTTCAAGCGCCATCTAC”, the binding signal was 0.896 RPM ratio (pull-down/input).
In the case of “GATGATTGTTCTCCCAGCTGATGAATTTGTGCAGTCGAGTAAACAAATTTTCCTAATCTTTCTGTTCAAGCGCCATCTAC” it was 1.1 RPM ratio (pull-down/input).
As for “GATGATTGTTCTCCCAGCTGATGAATTTTTAGACTCGAGTAAACAAATTTTCCTAATCTTTCTGTTCAAGCGCCATCTAC”, the binding signal is 0.939 RPM ratio (pull-down/input).
The same measure for “GATGATTGTTCTCCCAGCTGATGAATTGCTTTGGTCGAGTAAACAAATTTTCCTAATCTTTCTGTTCAAGCGCCATCTAC”: 1.07 RPM ratio (pull-down/input); for “GATGATTGTTCTCCCAGCTGATGAATTCATTGCGTCGAGTAAACAAATTTTCCTAATCTTTCTGTTCAAGCGCCATCTAC”: 1 RPM ratio (pull-down/input); for “GATGATTGTTCTCCCAGCTGATGAATTTGGAGATTCGAGTAAACAAATTTTCCTAATCTTTCTGTTCAAGCGCCATCTAC”: 0.847 RPM ratio (pull-down/input).
The same measure for “GATGATTGTTCTCCCAGCTGATGAATTCTGTAGCTCGAGTAAACAAATTTTCCTAATCTTTCTGTTCAAGCGCCATCTAC”: 0.924 RPM ratio (pull-down/input); for “GATGATTGTTCTCCCAGCTGATGAATTGGCCCAGTCGAGTAAACAAATTTTCCTAATCTTTCTGTTCAAGCGCCATCTAC”: 0.821 RPM ratio (pull-down/input); for “GATGATTGTTCTCCCAGCTGATGAATTCTGAAGATCGAGTAAACAAATTTTCCTAATCTTTCTGTTCAAGCGCCATCTAC”: 0.82 RPM ratio (pull-down/input).
In the case of “GATGATTGTTCTCCCAGCTGATGAATTCGGCTGATCGAGTAAACAAATTTTCCTAATCTTTCTGTTCAAGCGCCATCTAC” it was 0.839 RPM ratio (pull-down/input).
As for “GATGATTGTTCTCCCAGCTGATGAATTCATGTGATCGAGTAAACAAATTTTCCTAATCTTTCTGTTCAAGCGCCATCTAC”, the binding signal was 0.922 RPM ratio (pull-down/input).
The same measure for “GATGATTGTTCTCCCAGCTGATGAATTGTTGACCTCGAGTAAACAAATTTTCCTAATCTTTCTGTTCAAGCGCCATCTAC”: 1.88 RPM ratio (pull-down/input); for “GATGATTGTTCTCCCAGCTGATGAATTTCTTCGCTCGAGTAAACAAATTTTCCTAATCTTTCTGTTCAAGCGCCATCTAC”: 0.783 RPM ratio (pull-down/input).
In the case of “GATGATTGTTCTCCCAGCTGATGAATTCGACAATTCGAGTAAACAAATTTTCCTAATCTTTCTGTTCAAGCGCCATCTAC” it was 1.02 RPM ratio (pull-down/input).
In the case of “GATGATTGTTCTCCCAGCTGATGAATTTAAGCTTTCGAGTAAACAAATTTTCCTAATCTTTCTGTTCAAGCGCCATCTAC” it was 0.923 RPM ratio (pull-down/input).
Turning to “GATGATTGTTCTCCCAGCTGATGAATTCGGTCATTCGAGTAAACAAATTTTCCTAATCTTTCTGTTCAAGCGCCATCTAC”, the binding signal was 0.813 RPM ratio (pull-down/input).
The same measure for “GATGATTGTTCTCCCAGCTGATGAATTTCTATAGTCGAGTAAACAAATTTTCCTAATCTTTCTGTTCAAGCGCCATCTAC”: 0.931 RPM ratio (pull-down/input); for “GATGATTGTTCTCCCAGCTGATGAATTGAGGTCGTCGAGTAAACAAATTTTCCTAATCTTTCTGTTCAAGCGCCATCTAC”: 0.833 RPM ratio (pull-down/input); for “GATGATTGTTCTCCCAGCTGATGAATTTGTCGTCTCGAGTAAACAAATTTTCCTAATCTTTCTGTTCAAGCGCCATCTAC”: 1.07 RPM ratio (pull-down/input).
As for “GATGATTGTTCTCCCAGCTGATGAATTGAGCGCATCGAGTAAACAAATTTTCCTAATCTTTCTGTTCAAGCGCCATCTAC”, the binding signal is 1.19 RPM ratio (pull-down/input).
Regarding “GATGATTGTTCTCCCAGCTGATGAATTTTATGCTTCGAGTAAACAAATTTTCCTAATCTTTCTGTTCAAGCGCCATCTAC”, the binding signal was 1.02 RPM ratio (pull-down/input).
In the case of “GATGATTGTTCTCCCAGCTGATGAATTCCCCGTGTCGAGTAAACAAATTTTCCTAATCTTTCTGTTCAAGCGCCATCTAC” it was 0.769 RPM ratio (pull-down/input).
The same measure for “GATGATTGTTCTCCCAGCTGATGAATTGAGATACTCGAGTAAACAAATTTTCCTAATCTTTCTGTTCAAGCGCCATCTAC”: 0.953 RPM ratio (pull-down/input); for “GATGATTGTTCTCCCAGCTGATGAATTACTACCCTCGAGTAAACAAATTTTCCTAATCTTTCTGTTCAAGCGCCATCTAC”: 1.01 RPM ratio (pull-down/input).

For the origin of these results see PMC12820563, “FoxP3 forms a head-to-head dimer in vivo and stabilizes its multimerization on adjacent microsatellites”.
